Assay results: the supplement of paper PMC10126150
Sequences with one replicate were seen in a single cluster, so their values are uncertain.

System: ATP
Test: switch fluorescence ratio, 500 uM ATP over buffer (Cy3 cluster intensity, sum of 5 cycles each) (fold (ratio)); higher = stronger signal-on switching upon ATP binding; sequences stand for … in TCGTCGGCAGCGTCAGATGTGTATAAGAGACAGTTTTTTTTTTTTTTTTTTTTTTTTT…TC
Conditions: aptamer strand: ATP DNA aptamer (quencher-CACCTGGGGGAGTATTGCGGAGGAAGG + anchor), 100 nM annealed; ATP concentration: 500 uM; one replicate
How it was run: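 Cy3-labelled switching-strand clusters on a modified Illumina MiSeq flow-cell were annealed to 100 nM quencher-labelled ATP aptamer, imaged in selection buffer, then imaged after 15 min with 500 uM ATP at 22 °C. Five buffer/ATP cycles ran, with NaOH stripping and re-annealing between them. The fluorescence ratio is summed target-cycle over summed buffer-cycle Cy3 intensity per cluster, averaged per switch-domain sequence. Clusters outside 100-1000 RFU were excluded.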
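Further: ATP exposure 15 min at 22 °C before imaging.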

Row | Sequence | switch fluorescence ratio
1 | TTATGTCGGG | 1
2 | TTATTAAGG | 0.958
3 | TTATTATAAA | 1.05
4 | TTATTGTAGT | 0.988
5 | TTATTGTGGT | 0.958
6 | TTATTGTTAA | 0.99
7 | TTATTTGGTG | 1.06
8 | TTCAAAACCA | 1.02
9 | TTCAAACCAT | 0.993
10 | TTCAAAGCGT | 1.03
11 | TTCAACGCGT | 1.01
12 | TTCAACGTCA | 1.08
13 | TTCAACTATC | 1.03
14 | TTCAACTGAA | 1.03
15 | TTCAATACGA | 1.61
16 | TTCAATGGTA | 1.03
17 | TTCACCGGGG | 1
18 | TTCACTCTA | 1.11
19 | TTCAGATATG | 0.982
20 | TTCAGCTAAA | 1.05
21 | TTCAGGCAGC | 0.996
22 | TTCAGGGCAT | 0.976
23 | TTCAGGTCA | 1.01
24 | TTCAGTAGCT | 1.05
25 | TTCAGTCTGA | 0.999
26 | TTCAGTTGC | 1.06

Row | Sequence | switch fluorescence ratio
27 | TTCAGTTGCG | 0.946
28 | TTCATAATG | 1.01
29 | TTCATAGAGC | 1.06
30 | TTCATAGGAT | 1
31 | TTCATCTCGT | 1.02
32 | TTCATCTTAG | 0.943
33 | TTCATGGGCC | 1.08
34 | TTCATGGGGG | 0.951
35 | TTCATGTGA | 0.992
36 | TTCATTAGAG | 1.01
37 | TTCATTAGGT | 1.01
38 | TTCATTCAG | 0.966
39 | TTCATTCAGG | 1.02
40 | TTCCAAAAT | 1.31
41 | TTCCAATTAC | 1.52
42 | TTCCACATTC | 1.26
43 | TTCCACGTTC | 1.06
44 | TTCCAGCATG | 1.08
45 | TTCCAGTATC | 1.05
46 | TTCCAGTTAG | 1.03
47 | TTCCATCTGG | 0.984
48 | TTCCATGAGG | 1
49 | TTCCATTCGT | 0.973
50 | TTCCATTCT | 0.959
51 | TTCCATTGTC | 1
52 | TTCCATTTAG | 1.02

Row | Sequence | switch fluorescence ratio
53 | TTCCCGCAAG | 1.42
54 | TTCCGAGCTG | 1.58
55 | TTCCGATGGT | 1.02
56 | TTCCGCACAT | 2.41
57 | TTCCGCACG | 1.91
58 | TTCCGCAGCG | 2.79
59 | TTCCGCCGTT | 1.18
60 | TTCCGTGAGT | 1.02
61 | TTCCGTTTT | 1.02
62 | TTCCTAACAT | 1.03
63 | TTCCTATTAA | 1
64 | TTCCTCATAT | 1.12
65 | TTCCTCGATG | 1.06
66 | TTCCTCTCTT | 1.02
67 | TTCCTCTTGT | 1.02
68 | TTCCTGCGTA | 1.07
69 | TTCCTGCTA | 1.21
70 | TTCCTGTGGC | 1.07
71 | TTCGAACTGT | 1.01
72 | TTCGAAGGTC | 0.992
73 | TTCGACGACT | 1.11
74 | TTCGACTATG | 0.994
75 | TTCGAGCTGG | 1.01
76 | TTCGAGTGAT | 1.01
77 | TTCGATCACA | 0.983
78 | TTCGCAAAAA | 1.21

Row | Sequence | switch fluorescence ratio
79 | TTCGCAAAGT | 1.04
80 | TTCGCGAGGA | 1.06
81 | TTCGCTGCGC | 1.09
82 | TTCGCTTACG | 1.13
83 | TTCGCTTT | 1.37
84 | TTCGGCTAAT | 1.03
85 | TTCGGGCCTC | 1.08
86 | TTCGGGGCCT | 1.01
87 | TTCGGGTATA | 0.972
88 | TTCGTAGCAT | 4.14
89 | TTCGTAGTAT | 1.06
90 | TTCGTCCTG | 1.01
91 | TTCGTCGTCC | 1.03
92 | TTCGTGAAAC | 1.01
93 | TTCGTGCGAC | 1
94 | TTCGTGCGGG | 0.983
95 | TTCGTGTGGG | 0.933
96 | TTCGTTAGCT | 1.02
97 | TTCGTTAGGG | 0.95
98 | TTCGTTCCCT | 1
99 | TTCGTTTGGA | 1
100 | TTCTAAATG | 0.994
101 | TTCTAACTCC | 2.08
